The densities may have been worked out from excess volumes.
Experiment: xn = mol fraction of the nth substance listed
Settings: 100 kPa

CCCC[n+]1ccn(C)c1.[Cl-] + CCCC[n+]1ccn(C)c1.F[B-](F)(F)F
mass density [kg/m3]
Settings	x2 = 0	x2 = 0.1989	x2 = 0.3321	x2 = 0.5003	x2 = 0.667	x2 = 0.8003
303.15 K	–	1105.8	–	1141.7	1160.7	1175.7
308.15 K	1077.4	1102.8	1119.1	–	1157.4	1172.3
313.15 K	1074.6	1099.9	–	–	1154.1	1168.8
318.15 K	1071.8	1096.9	1112.9	1132.1	1150.7	–
323.15 K	–	1093.9	–	1128.9	1147.4	–

CCCC[n+]1ccn(C)c1.F[B-](F)(F)F + CCCC[n+]1ccn(C)c1.[Cl-]
x1 = 1
Settings	mass density [kg/m3]
303.15 K	1196.1
308.15 K	1192.6
313.15 K	1189
323.15 K	1182
